Two molecules from patent US20240228645A1 (DRAGONFLY THERAPEUTICS, published 2024) can be followed below.

For test [1], the target named is T1, cynomolgus monkey BAFF-R expressed on CHO cells (cBAFF-R-CHO) (cynomolgus monkey).
T1 construct: whole, on cells; also called cynoBAFF-R
The test is described as follows: cell binding assay, cBAFF-R+ cells. An excerpt:
(§1) Selected clones from the off rate challenge studies described above were produced as multispecific binding proteins comprising an scFv of the respective binders, and two non-BAFF-R binders, expressed in Expi293 cells, and characterized by binding to hBAFF-R expressing cells and cynomolgus BAFF-R expressing cells, ability to lyse BAFF-R expressing cancer cells in a KHYG-1-CD16aV mediated cytotoxicity assay, ability to block BAFF-BAFF-R interactions, thermostability (differential scanning fluorimetry, DSF) and hydrophobicity (HIC) (results are summarized in Table 12). Binding affinity of AB1080, AB1081, and AB1085 to BAFF-R⁺ cells was improved as compared to the parental clones (FIGS. 23A-23B as compared to Table 12). Additionally, binding affinity to cynoBAFF-R was similar to binding affinity to hBAFF-R (FIGS. 23A-23B). Lack of polyspecificity was confirmed by a PSR assay (FIGS. 24A-24B). AB1084 was removed from further study, due to long retention time on HIC and subsequent potential for higher aggregation propensity. […] In addition, a greater than ten-fold improvement in potency was observed as compared to the original AB0369 multispecific binding protein.

The target of test [2] is T2, human BAFF-R expressed on cells (hBAFF-R-CHO isogenic CHO cells; BAFF-R+ cancer cells) (human, UniProt Q96RJ3 1-184).
T2 construct: whole, on cells; also called hBAFF-R^+ cells; BAFF-R+ CHO cells
The test is described as follows: cell binding assay, hBAFF-R+ cells.
From the text: as §1

Test [3] deals with T2, human BAFF-R expressed on cells …. In words: cell-based or functional assay.
Test [4] has the same target. The test is described as follows: cell binding assay, human BAFF-R cells.
For test [5], the target named is T1, cynomolgus monkey BAFF-R expressed on …. In words: cell binding assay, cynomolgus BAFF-R cells.
Test [6] concerns the target T2, human BAFF-R expressed on cells …. In words: ligand blocking assay; competitor BAFF-biotin on CHO cells expressing human BAFF-R.

B1: AB1080 multispecific binding protein (other, not shown: a dimerising Fc or GST; small tags and cut ends)
VH: EVQLVQSGGGVVQPGRSLRLSCAASGFTFSSYGMHWVRQAPGKCLEWVAVIWYDASNKYYGDSVKGRFTISRDNSKNTLYLQMNSLRDEDTAVYYCARRFTHLRGWYIEDYGLDVWGQGTTVTVSS
VL: EIVLTQSPSSLSASVGDRVTIT[gap - about 80 residues]FGCGTKVEIK
notes: also called AB1080-002; AB1080-003
Take B1: the EC50 in test [1] stood at 1.36 nM; in test [2], 1.97 nM; in test [4], 2.71 nM; in test [5], 2.36 nM. In addition, the “Cytolysis, EC50” value in test [3] worked out at 0.03 nM. The IC50 in test [6] worked out at 5.72 nM.

B2: AB1081 multispecific binding protein (other, not shown: a dimerising Fc or GST; small tags and cut ends)
VH: EVQLVQSGGGVVQPGRSLRLSCAASGFAFSSYGMHWVRQAPGKCLEWVAVIWYDESNKYYGDSVKGRFTISRDNSRNTLYLQMNSLRDEDTAVYYCARRFTNLRGWIIEDYGLDVWGQGTTVTVSS
VL: EIVLTQSPSSLSASVGDRVTIT[gap - about 80 residues]FGCGTKVEIK
notes: also called AB1081-002
B2: the EC50 in test [1] is over 14 nM; in test [2], over 8 nM. Further, in test [3], the “Cytolysis, EC50” value turned out to be 0.05 nM.
